Assay results published in PubChem BioAssay AID504332 (National Center for Advancing Translational Sciences (NCATS), 2011).
In all, about 350,000 compounds went through this assay and about 31,000 (8.9%) were called active. Inconclusive means that the source gave no clear call. Such entries were picked first, then a sample of the others. Calls follow the shape of the dose curve; as a rule, active = well fitted inhibition curve with a large enough effect; inconclusive = small, poorly fitted or top-dose-only effect; inactive = no such curve, though single readings can be large or run the other way. Potencies of inconclusive entries are doubtful fits and often do not repeat.
% is scaled to controls: 0 for no effect and ±100 for the full control effect; potency is read from the fitted curve at half-maximal effect; tags tell the direction and shape of the fitted curve.
Also: nearly all actives have a fitted effect of over 75% in size.

These molecules were tested against Histone-lysine N-methyltransferase EHMT2 (Homo sapiens) (UniProt Q96KQ7) (assay: qHTS Assay for Inhibitors of Histone Lysine Methyltransferase G9a). Conditions: G9a H3K9 monomethylation, AlphaScreen, 2 h; activity, negative = inhibition: at 59 µM (top of the series) unless noted.
Chain of UniProt Q96KQ7 (Q96KQ7 whole entry, looked up): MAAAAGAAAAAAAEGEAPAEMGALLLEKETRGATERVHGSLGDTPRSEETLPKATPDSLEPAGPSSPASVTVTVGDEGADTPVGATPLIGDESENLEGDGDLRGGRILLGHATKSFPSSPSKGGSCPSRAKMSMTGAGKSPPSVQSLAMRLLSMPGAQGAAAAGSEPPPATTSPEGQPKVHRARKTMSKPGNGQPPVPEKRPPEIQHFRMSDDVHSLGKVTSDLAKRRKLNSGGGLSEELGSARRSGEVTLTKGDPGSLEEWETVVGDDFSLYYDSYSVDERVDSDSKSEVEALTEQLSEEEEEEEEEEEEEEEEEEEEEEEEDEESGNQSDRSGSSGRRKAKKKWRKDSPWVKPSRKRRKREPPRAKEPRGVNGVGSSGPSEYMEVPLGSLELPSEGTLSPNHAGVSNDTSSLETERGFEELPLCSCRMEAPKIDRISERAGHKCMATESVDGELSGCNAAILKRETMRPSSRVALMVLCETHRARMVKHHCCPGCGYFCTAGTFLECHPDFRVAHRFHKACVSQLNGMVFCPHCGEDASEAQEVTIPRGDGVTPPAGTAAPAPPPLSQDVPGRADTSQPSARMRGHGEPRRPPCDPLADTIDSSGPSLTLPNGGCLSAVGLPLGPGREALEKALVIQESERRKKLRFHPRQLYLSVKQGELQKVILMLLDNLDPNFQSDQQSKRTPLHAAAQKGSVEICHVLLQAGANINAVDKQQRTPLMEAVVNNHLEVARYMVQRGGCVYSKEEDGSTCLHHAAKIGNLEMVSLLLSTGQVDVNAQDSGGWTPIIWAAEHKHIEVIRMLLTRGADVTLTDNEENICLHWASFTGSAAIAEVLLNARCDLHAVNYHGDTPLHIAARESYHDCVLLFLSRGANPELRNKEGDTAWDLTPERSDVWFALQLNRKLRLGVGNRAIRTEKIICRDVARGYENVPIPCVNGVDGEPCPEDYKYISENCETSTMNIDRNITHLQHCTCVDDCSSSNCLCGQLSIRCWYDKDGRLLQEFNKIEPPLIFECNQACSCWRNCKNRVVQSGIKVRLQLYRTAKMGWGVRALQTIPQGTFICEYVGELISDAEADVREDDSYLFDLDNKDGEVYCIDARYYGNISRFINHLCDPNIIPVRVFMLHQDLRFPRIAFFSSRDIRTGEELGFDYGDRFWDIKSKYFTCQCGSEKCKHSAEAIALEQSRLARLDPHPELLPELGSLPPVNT
Method in brief: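 Signal arises when biotinylated H3K9 peptide, once monomethylated, bridges streptavidin donor and antibody-captured acceptor beads. Enzyme at 20 nM was preincubated 15 min with test compounds; peptide 500 nM and SAM 20 uM then reacted for 2 h.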
With `Cc1ccc(S(=O)(=O)N2CCN(C(=O)COC(=O)CSc3ccc(C)c(C)c3)CC2)c(C)c1` the Potency was inconclusive: 89.1 µM [inhibitor, single point]. With `COc1ccc(C)cc1NS(=O)(=O)c1ccc2c(c1)[C@H]1C=CC[C@H]1[C@@H](c1cccc(Cl)c1)N2` the Potency was active: 2.82 µM. In the case of `O=c1c2c(nc3nc(NCc4cccc5ccccc45)[nH]n13)CCC2`, the activity, negative = inhibition is reported as inconclusive: -63% [inhibitor] [at 12.7 µM]. In the case of `O=C(O)COC(=O)Cc1ccccc1Nc1c(Cl)cccc1Cl`, the Potency is reported as “inactive”. In the case of `COC(=O)c1sc(-c2ccc(Cl)cc2)cc1NC(=O)/C=C/C(=O)O`, the “activity, negative = inhibition” value is reported as inactive: -28.4% [at 102 µM]. For `COc1ccc(OC)c(CCNC(=O)c2cc3c(-c4ccccc4F)nn(C)c3s2)c1`, the Potency was inconclusive: 14.1 µM [inhibitor, partial curve, poor fit]. With `O=C(CSc1nnc(-c2ccncc2)n1-c1ccccc1)Nc1ccc(C(=O)O)cc1` the Potency was active: 50.1 µM. In the case of `Cc1ccc(C)c(N2CCN(C(=O)CCS(=O)(=O)c3cccc4nonc34)CC2)c1`, the activity, negative = inhibition is reported as inconclusive: -96.2% [inhibitor]. For `CCOC(=O)c1cc(-c2ccc(F)cc2)n(CCC(=O)NC2CCN(Cc3ccccc3)CC2)c1C`, the Potency was inconclusive: 89.1 µM [inhibitor, single point]. In the case of `CCOc1ccc(NC(=O)COC(=O)C2(C)CC2(Cl)Cl)c([N+](=O)[O-])c1` (stereo unspecified), the Potency is reported as active: 12.6 µM. With `Cc1ccc(-n2ncc3c2CC(C)(C)CC3NC(=O)CCc2c(C)noc2C)cc1` (stereo unspecified) the “activity, negative = inhibition” value was inactive: 7.32% [at 102 µM]. For `O=c1[nH]c(NNC(=S)NCc2ccccc2)nc2c1C1(CCCCC1)Cc1ccccc1-2`, the Potency was active: 20 µM. For `CC(=O)C1=C(O)C(=O)N(C)C1c1ccccc1F` (stereo unspecified), the Potency was inconclusive: 50.1 µM [inhibitor, partial curve, poor fit]. In the case of `CCOC(=O)c1sc2cc([N+](=O)[O-])cc(SCC(=O)OC)c2c1N`, the Potency is reported as active: 7.94 µM. With `Nc1c(N(CCC2=CCCCC2)C(=O)c2ccco2)c(=O)[nH]c(=O)n1Cc1ccccc1` the Potency was inconclusive: 56.2 µM [inhibitor, partial curve, poor fit]. With `Nc1cccc(C(=O)OCC(=O)Nc2cccc3c2C(=O)c2ccccc2C3=O)c1` the “activity, negative = inhibition” value was inactive: -7.8%. In the case of `O=C(CCC1CCCN(C(=O)c2ccsc2)C1)NCc1ccc(F)c(F)c1` (stereo unspecified), the Potency is reported as inconclusive: 44.7 µM [inhibitor, partial curve, poor fit]. In the case of `COc1ccccc1CCNC(=O)CCn1c(=O)c2cccn2c2ccc(F)cc21`, the Potency is reported as “inactive”. In the case of `Cc1cccc(OCc2ccc(-c3nc(C#N)c(N4CCC(C(N)=O)CC4)o3)o2)c1`, the Potency is reported as inconclusive: 12.6 µM [inhibitor, partial curve]. `O=C(Nc1cc(C(F)(F)F)ccc1Cl)c1cc(S(=O)(=O)NCc2ccccc2)ccc1F` was tested, and the “activity, negative = inhibition” value was inactive: 18.1%. For `CCN1CCN(C(=O)CCc2nnc(CCc3ccc(OC)cc3)o2)[C@@H](C)C1=O`, the “activity, negative = inhibition” value was inactive: 1.61% [at 102 µM]. In the case of `Cc1cc(=O)[nH]c(SCC(=O)Nc2ccc(S(N)(=O)=O)cc2)n1`, the Potency is reported as inconclusive: 22.4 µM [inhibitor, full curve]. With `O=C(O)c1cc2cccc(S(=O)(=O)N3CCCCC3)c2cc1O` the Potency was inconclusive: 89.1 µM [inhibitor, single point]. For `CN1CCN(/N=C/c2ccc(Cl)c(Cl)c2)CC1`, the Potency was inconclusive: 25.1 µM [inhibitor, partial curve, poor fit]. With `Fc1ccc(NCc2cn3ccccc3n2)cc1` the “activity, negative = inhibition” value was inactive: -36.8%. In the case of `O=C(Nc1cnccn1)c1ccncc1`, the Potency is reported as inconclusive: 79.4 µM [inhibitor, partial curve, poor fit]. In the case of `S=C1NCCOCCOCCOCCNC(=S)N2CCOCCOCCN1CCOCCOCC2`, the “activity, negative = inhibition” value is reported as inactive: 8.86% [at 102 µM]. In the case of `CCCNC(=O)c1noc2c1CCc1cc(OC)ccc1-2`, the “activity, negative = inhibition” value is reported as inactive: 6.73% [at 102 µM]. `O=C(Nc1ccc2ccccc2c1)Nc1ccc2snnc2c1` was tested, and the Potency was inconclusive: 79.4 µM [inhibitor, single point]. For `CCC(=O)Nc1ccc(C(=O)n2nc(C)cc2C)cc1`, the Potency was inconclusive: 22.4 µM [inhibitor, single point]. With `Cc1ccc(-c2nc3ncccc3o2)cc1NC(=O)COc1ccc(C(C)C)cc1` the Potency was active: 14.1 µM. With `COc1cc(C(=O)OCCCN=C2NS(=O)(=O)c3ccccc32)cc(OC)c1OC` the “activity, negative = inhibition” value was inactive: 4.03% [at 102 µM]. For `COC(=O)CCCCCN1C(=O)/C(=C\c2ccncc2)SC1=S`, the Potency was active: 10 µM. With `CC1CCCCN1CCCNC(=O)c1c(O)nc2ccccn2c1=O` (stereo unspecified) the Potency was inconclusive: 89.1 µM [inhibitor, single point]. In the case of `COc1ccccc1OC(C)C(=O)Nc1ccccc1C(=O)NCc1cccnc1` (stereo unspecified), the Potency is reported as inconclusive: 7.94 µM [inhibitor, full curve]. In the case of `COc1cccc(C(=O)NCCS(=O)(=O)NCc2cccnc2)c1`, the Potency is reported as active: 50.1 µM. For `COC1CCN(C(=O)C2CCC(=O)N(C3CCCCCC3)C2)CC1` (stereo unspecified), the Potency was inconclusive: 89.1 µM [inhibitor, single point]. In the case of `C=CCn1c(O)c(N=NC(=O)CNC(=O)/C=C/c2ccco2)c2ccccc21`, the Potency is reported as active: 50.1 µM. With `COc1ccc(OCCSc2ccc(S(=O)(=O)N3CCCC3)cn2)cc1` the Potency was inconclusive: 35.5 µM [inhibitor, single point]. For `CCOC(=O)c1cccc(NC(=O)CC2C(=O)N(c3ccc(F)cc3)C(=O)N2C(C)C)c1` (stereo unspecified), the “activity, negative = inhibition” value was inactive: -0.958%. `Cc1c(Cl)cccc1-c1ccc(C(=O)N2CCN(c3ccc([N+](=O)[O-])cc3)CC2)o1` was tested, and the Potency was inconclusive: 7.08 µM [inhibitor, full curve]. `COCCN(CCOC)S(=O)(=O)c1ccc(C(=O)Nc2nnc(C)o2)cc1` was tested, and the Potency was active: 7.08 µM. With `Cc1ccc2c(CC(=O)N3CCN(S(=O)(=O)c4ccccc4)CC3)coc2c1` the Potency was inconclusive: 89.1 µM [inhibitor, single point]. `COc1c(N2CCN(C(=S)Nc3ccccc3F)C(C)C2)c(F)cc2c(=O)c(C(=O)O)cn(C3CC3)c12` (stereo unspecified) was tested, and the Potency was inconclusive: 39.8 µM [inhibitor, single point]. With `Cc1nnc(NC(=O)c2ccccc2Br)s1` the “activity, negative = inhibition” value was inactive: -3.6%. In the case of `CCn1nc(NC(=O)Cc2ccc(OC)cc2)c2cc3cccc(C)c3nc21`, the “activity, negative = inhibition” value is reported as inactive: 6.05% [at 102 µM]. In the case of `CCOc1ccc(Sc2cc(C(=O)NCc3ccc(F)cc3)c3ccccc3n2)cc1`, the Potency is reported as inconclusive: 3.98 µM [inhibitor, single point]. With `O=C(Nc1ccc2c(c1)OCO2)N1CCOCC1` the activity, negative = inhibition was inconclusive: -59.5% [inhibitor]. `N#CCCn1nc(-c2ccc(Cl)cc2)cc1Nc1ccccc1NC(=O)C(F)(F)F` was tested, and the Potency was inconclusive: 89.1 µM [inhibitor, single point]. For `CCOC(=O)C12CC1/C(=N\O)c1ccccc1O2` (stereo unspecified), the “activity, negative = inhibition” value was inactive: -15.3%. For `S=c1[nH]nc(-c2ccco2)n1/N=C/c1ccc(Cl)cc1`, the Potency was active: 1.26 µM. `O=C(N/N=C/c1coc2ccccc2c1=O)c1ccccc1` was tested, and the Potency was inconclusive: 39.8 µM [inhibitor, full curve]. `Cc1cccc(C)c1Nc1c(-c2ccsc2)nc2ncccn12` was tested, and the Potency was inconclusive: 89.1 µM [inhibitor, single point]. With `CSc1ccccc1NC(=O)C1C2CCC(C2)C1C(=O)O` (stereo unspecified) the Potency was inconclusive: 89.1 µM [inhibitor, partial curve, poor fit]. `Cc1ccc(S(=O)(=O)Nc2ccc(OCC(=O)N3CCOCC3)cc2)c(C)c1NS(C)(=O)=O` was tested, and the Potency was inconclusive: 39.8 µM [inhibitor, single point]. `COc1cc(Cl)c(C)cc1NC(=O)CSc1cc(=O)n(C)c2cc(Cl)ccc12` was tested, and the “activity, negative = inhibition” value was inactive: 4.92%. `Cc1ccc(S(=O)(=O)NCc2ccco2)c(C)c1C` was tested, and the Potency was inconclusive: 89.1 µM [inhibitor, single point]. `Cn1ncc2c(NCc3cccc(Cl)c3)ncnc21` was tested, and the “activity, negative = inhibition” value was inactive: 10%. In the case of `COc1cc(C(=O)Nc2sc3c(c2C(=O)O)CCC3)cc(OC)c1OC`, the Potency is reported as inconclusive: 100 µM [inhibitor, single point]. `O=C(CN1C(=O)CCSc2ccc(S(=O)(=O)N3CCCC3)cc21)Nc1cccc(Cl)c1` was tested, and the “activity, negative = inhibition” value was inactive: 2.06%. `COc1ccc(NC(=O)CCCn2cc([N+](=O)[O-])cn2)cc1` was tested, and the Potency was inconclusive: 50.1 µM [inhibitor, partial curve, poor fit]. In the case of `Cc1ccc(Cn2c(C(C)Nc3nc(-c4ccc(C)cc4)cs3)nc3cc(Cl)c(Cl)cc32)cc1` (stereo unspecified), the Potency is reported as active: 28.2 µM. For `CCOc1cc(/C=C/c2cccc[n+]2C)ccc1O`, the Potency was inconclusive: 79.4 µM [inhibitor, single point]. `O=C(CSc1ncn(-c2ccccc2)n1)Nc1nncs1` was tested, and the Potency was inconclusive: 50.1 µM [inhibitor, partial curve, poor fit]. In the case of `O=c1[nH]c(=O)c2nc(-c3ccc(Cl)cc3)cnc2[nH]1`, the Potency is reported as inconclusive: 44.7 µM [inhibitor, partial curve, poor fit]. With `O=C(NCC(c1ccco1)N1CCOCC1)c1ccc([N+](=O)[O-])cc1` (stereo unspecified) the Potency was inconclusive: 89.1 µM [inhibitor, partial curve, poor fit]. With `COc1ccc(CCNC(=O)C2CC(=O)N(c3ccc(C)cc3)C2)cc1OC` (stereo unspecified) the “activity, negative = inhibition” value was inactive: -2.31%. In the case of `Cn1c(C(=O)OCC(=O)NCc2ccco2)cc2sccc21`, the Potency is reported as inconclusive: 89.1 µM [inhibitor, single point]. For `O=C(O)c1ccc(-n2cccc2/C=N\NC(=O)c2cc3cc(Br)ccc3o2)cc1`, the Potency was active: 14.1 µM. `COc1ccccc1C(=O)NCC(=O)N/N=C/c1cc(Br)ccc1OC(=O)/C=C\c1ccco1` was tested, and the Potency was inconclusive: 35.5 µM [inhibitor, single point]. For `CN(C(=O)CSc1nnc(N)s1)c1c(N)n(Cc2ccccc2)c(=O)[nH]c1=O`, the Potency was inconclusive: 3.16 µM [inhibitor, single point].
